The target in one test is T1, Flag-IRAK2 (UniProt O43187).
T1 sequence: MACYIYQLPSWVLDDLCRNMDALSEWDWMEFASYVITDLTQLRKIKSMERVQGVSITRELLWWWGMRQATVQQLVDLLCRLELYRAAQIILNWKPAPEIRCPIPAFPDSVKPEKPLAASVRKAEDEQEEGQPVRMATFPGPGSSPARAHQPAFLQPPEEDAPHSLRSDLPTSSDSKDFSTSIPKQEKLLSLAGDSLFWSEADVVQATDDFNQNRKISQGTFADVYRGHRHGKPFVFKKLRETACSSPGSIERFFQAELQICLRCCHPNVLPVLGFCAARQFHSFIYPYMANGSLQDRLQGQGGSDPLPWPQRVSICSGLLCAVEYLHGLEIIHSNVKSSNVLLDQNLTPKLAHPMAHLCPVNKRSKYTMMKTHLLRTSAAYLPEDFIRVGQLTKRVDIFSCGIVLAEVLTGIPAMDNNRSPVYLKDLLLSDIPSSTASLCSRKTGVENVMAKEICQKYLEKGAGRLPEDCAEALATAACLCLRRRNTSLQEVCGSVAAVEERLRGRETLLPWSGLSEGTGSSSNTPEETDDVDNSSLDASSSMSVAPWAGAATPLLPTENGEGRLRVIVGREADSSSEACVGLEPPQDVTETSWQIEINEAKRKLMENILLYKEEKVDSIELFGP
Nature of the test: co-IP; HEK293T cells co-transfected with tagged plasmids; IP buffer 1% NP-40, 150 mM NaCl, 10 mM Tris-HCl pH 7.4, 1 mM EDTA; antibody with Protein A/G PLUS Agarose overnight; immunoblot. For orientation: A western blot detects proteins with antibodies after separation by electrophoresis.

The target of a further test is T2, Flag-IRAK4 (UniProt Q9NWZ3).
T2 sequence: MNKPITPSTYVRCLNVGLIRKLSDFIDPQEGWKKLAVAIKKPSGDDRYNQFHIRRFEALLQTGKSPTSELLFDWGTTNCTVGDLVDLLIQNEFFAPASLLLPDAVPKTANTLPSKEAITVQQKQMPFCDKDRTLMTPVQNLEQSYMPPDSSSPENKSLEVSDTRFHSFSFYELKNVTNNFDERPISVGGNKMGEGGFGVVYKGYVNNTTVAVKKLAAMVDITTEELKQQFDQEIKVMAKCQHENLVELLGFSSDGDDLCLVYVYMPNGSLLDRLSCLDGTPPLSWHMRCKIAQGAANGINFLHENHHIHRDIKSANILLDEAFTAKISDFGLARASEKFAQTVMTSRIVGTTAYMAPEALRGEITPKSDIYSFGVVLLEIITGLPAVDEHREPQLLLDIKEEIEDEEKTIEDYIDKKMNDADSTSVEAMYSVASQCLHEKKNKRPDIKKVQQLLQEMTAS
The test is described as above.

These are yes or no findings as the source states them, for the method shown. In cells and extracts the contact can be indirect. Where a sequence is shown, tags or fusion partners need not be part of it.

B1: Myc-OTUD5 (enzyme, UniProt Q96G74 1-571)
chain: MTILPKKKPPPPDADPANEPPPPGPMPPAPRRGGGVGVGGGGTGVGGGDRDRDSGVVGARPRASPPPQGPLPGPPGALHRWALAVPPGAVAGPRPQQASPPPCGGPGGPGGGPGDALGAAAAGVGAAGVVVGVGGAVGVGGCCSGPGHSKRRRQAPGVGAVGGGSPEREEVGAGYNSEDEYEAAAARIEAMDPATVEQQEHWFEKALRDKKGFIIKQMKEDGACLFRAVADQVYGDQDMHEVVRKHCMDYLMKNADYFSNYVTEDFTTYINRKRKNNCHGNHIEMQAMAEMYNRPVEVYQYSTGTSAVEPINTFHGIHQNEDEPIRVSYHRNIHYNSVVNPNKATIGVGLGLPSFKPGFAEQSLMKNAIKTSEESWIEQQMLEDKKRATDWEATNEAIEEQVARESYLQWLRDQEKQARQVRGPSQPRKASATCSSATAAASSGLEEWTSRSPRQRSSASSPEHPELHAELGMKPPSPGTVLALAKPPSPCAPGTSSQFSAGADRATSPLVSLYPALECRALIQQMSPSAFGLNDWDDDEILASVLAVSQQEYLDSMKKNKVHRDPPPDKS
Take B1: the binding result with Flag-IRAK2 and in the test with Flag-IRAK4 was “no binding” in each case.

The values above are taken from publication PMC11164869.
